# Laboratory results taken from PMC4336329 (PLoS ONE, 2015).
# Hit rate of the full screen: of about 310,000 compounds, about 14,000 (4.5%) showed an effect of 50% or more. The effect is printed as a negative number. The list shows a part of the results.
# Target: human ether-à-go-go-related gene (hERG) potassium channel (human, UniProt Q12809)
# Test: primary screen, population patch clamp on CHO cells stably expressing hERG
# 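Further: peak tail current of the secondary pulse compared with the same well before compound.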
# Chain of human ether-à-go-go-related gene (hERG) potassium channel (Q12809 whole entry, looked up): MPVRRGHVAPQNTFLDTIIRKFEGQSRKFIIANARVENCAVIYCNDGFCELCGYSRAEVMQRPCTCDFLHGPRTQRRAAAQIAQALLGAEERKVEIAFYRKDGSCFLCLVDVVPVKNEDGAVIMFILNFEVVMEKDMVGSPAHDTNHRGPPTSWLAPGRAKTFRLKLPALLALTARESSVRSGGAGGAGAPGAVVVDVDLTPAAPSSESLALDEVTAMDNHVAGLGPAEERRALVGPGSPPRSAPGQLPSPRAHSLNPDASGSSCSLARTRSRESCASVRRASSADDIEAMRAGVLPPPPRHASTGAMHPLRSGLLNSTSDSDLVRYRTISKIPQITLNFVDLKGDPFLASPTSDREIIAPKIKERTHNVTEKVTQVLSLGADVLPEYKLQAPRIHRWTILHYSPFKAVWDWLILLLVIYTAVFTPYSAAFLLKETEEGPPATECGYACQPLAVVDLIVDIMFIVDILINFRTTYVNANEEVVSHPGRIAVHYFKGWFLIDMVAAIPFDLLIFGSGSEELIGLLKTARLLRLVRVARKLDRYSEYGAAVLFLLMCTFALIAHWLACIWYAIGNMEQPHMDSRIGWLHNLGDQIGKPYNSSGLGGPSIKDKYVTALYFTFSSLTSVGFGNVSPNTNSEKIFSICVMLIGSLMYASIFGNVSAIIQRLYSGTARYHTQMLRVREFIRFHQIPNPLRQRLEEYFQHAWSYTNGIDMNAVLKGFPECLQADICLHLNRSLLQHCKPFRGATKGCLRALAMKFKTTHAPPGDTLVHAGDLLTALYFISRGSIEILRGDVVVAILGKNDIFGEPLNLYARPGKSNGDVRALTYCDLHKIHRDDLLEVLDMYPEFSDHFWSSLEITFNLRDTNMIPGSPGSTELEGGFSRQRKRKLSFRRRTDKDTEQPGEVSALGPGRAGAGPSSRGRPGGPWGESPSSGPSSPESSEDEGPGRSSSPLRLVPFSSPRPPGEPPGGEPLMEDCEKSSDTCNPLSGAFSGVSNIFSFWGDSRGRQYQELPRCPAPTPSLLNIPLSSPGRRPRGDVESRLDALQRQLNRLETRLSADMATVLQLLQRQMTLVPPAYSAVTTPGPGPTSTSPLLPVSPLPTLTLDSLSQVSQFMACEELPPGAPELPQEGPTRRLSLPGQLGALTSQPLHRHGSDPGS
row,Compound,"hERG current change (%, negative = inhibition) at 10uM [%]"
1,COc1ccc(-c2nnc(SCC(=O)NC3CC3)o2)cc1,3.94
2,Cc1ccc(/C=C2\SC(N3CCN(C(c4ccccc4)c4ccccc4)CC3)=NC2=O)o1,17.8
3,CCN(c1ccccc1)S(=O)(=O)c1cc(C(=O)Nc2ccc(F)c(F)c2)ccc1F,-8.4
4,CCOC(=O)/C(C#N)=C/c1ccc(-c2ccsc2C(=O)OC)o1,0.545
5,COc1ccc(C(=O)OCc2cc3cccc(C)c3[nH]c2=O)cc1,14.2
6,COc1ccc(C2c3c(-c4ccccc4O)n[nH]c3C(=O)N2Cc2ccco2)cc1 (stereo not drawn),-1.4
7,O=C(NN=C1C2CC3CC1CC(Cl)(C3)C2)c1cccs1,8.54
8,C=CCN1C(=O)c2ccc(C(=O)N3CCN(S(=O)(=O)c4cc(C)ccc4C)CC3)cc2C1=O,-36.2
9,CCOC(=O)c1cccc(NC(=O)CN(c2ccc(C)cc2)S(=O)(=O)c2c(C)noc2C)c1,11.8
10,CN(C)c1ccc(N2CN=C3SCC(=O)N3C2)cc1,15.4
11,NS(=O)(=O)c1ccc(CCNC(=O)c2ccc(NS(=O)(=O)c3ccc4[nH]c(=O)[nH]c4c3)cc2)cc1,-0.243
12,COc1ccccc1CNc1ccc(Br)cn1,2.77
13,COc1cc(NC(=O)c2ccc3c(c2)S(=O)(=O)N=C2CCCCCN23)cc(OC)c1,16.1
14,Cc1cc(-c2ccccc2)c2c(=O)n(-c3ccccc3)[nH]c2n1,13.1
15,CCCCn1c(SCC(=O)NCC2CCCO2)nc2ccc(N3CCOCC3)cc2c1=O (stereo not drawn),-26.9
16,CC(C)N1CCC2(CC1)Oc1ccc(Br)cc1C1CC(c3cccnc3)=NN12 (stereo not drawn),-38.5
17,COc1ccc(S(=O)(=O)Nc2cc(C)on2)cc1OC,8.54
18,S=C(N/N=C/c1ccc2c(c1)OCO2)NC1CC2CCC1C2 (stereo not drawn),18.9
19,Cc1ccc(NC(=S)NCCc2c[nH]c3ccccc23)c(C)c1,-13.9
20,Cc1ccc(NC(=O)CN2C(=O)S/C(=C\c3cccn3-c3cccc(C(=O)O)c3)C2=O)cc1C,25.7
21,O=C(CCS(=O)(=O)Cc1ccc(Cl)cc1)NCCc1ccccc1,3.13
22,OC1(c2ccc(F)cc2)CN(c2ccccc2)C2=[N+]1CCS2.[Br-] (stereo not drawn),-13.9
23,CCOC(=O)c1cccc(NC(=O)CN(c2ccc(C)cc2)S(=O)(=O)c2c(C)n[nH]c2C)c1,-20.2

row,Compound,"hERG current change (%, negative = inhibition) at 10uM [%]"
1,O=C(CSc1nnc(CNc2ccc(Cl)cc2)o1)Nc1nc2ccccc2s1,9.77
2,Cc1ccc(Sc2cc(C(=O)NCCCN(C)C)c3ccccc3n2)cc1,-56.5
3,O=C(CSc1nnc(Cc2ccccc2)o1)N1CCOCC1,0.161
4,COc1ccccc1-c1nc(-c2ccccn2)no1,11.4
5,Cc1ccc(NC(=O)CSCc2cc(=O)n3cc(C)sc3n2)cc1,15.7
6,COc1ccccc1NC(=O)NCCN1CCCCC1,-5.98
7,CCOC(=O)C/C(C)=N/NC(=O)COc1ccccc1C,-2.87
8,CCn1c(C)nnc1SCC(=O)Nc1ccc(Cl)cc1,10.3
9,CCc1ccc(N=c2c([N+](=O)[O-])nn(-c3ccccc3)n2O)cc1,-16.3
10,O=C(N/N=C/c1ccco1)c1cc(Br)ccc1OCc1ccccc1,4.01
11,Cl.NC(=O)c1ccc(OCCC(O)N2CC=C(c3ccc(F)cc3)CC2)cc1 (stereo not drawn),-71.2
12,Cc1ccc(-n2c(N)c(C(N)=O)sc2=S)cc1,4.74
13,COC1CCN(Cc2c(C(=O)N3CCN(C4CCCCC4)CC3)nc3ccccn23)CC1,5.42
14,O=C(Nc1cccc(S(=O)(=O)N2CCCCCC2)c1)c1ccc(=O)[nH]c1,-19.5
15,Cc1cc(C2=CC(=O)C[C@H](c3ccc4c(c3)OCO4)C2)ccc1F,3.08
16,COc1ccc(OC)c(NC(=O)Nc2ccc(O)c3ccccc23)c1,15.1
17,C/C(=N/Nc1nc(-c2ccccc2F)nc2ccccc12)c1ccccc1O,8.64
18,COc1cc(C(=S)N2CCOCC2)cc(OC)c1OC(=O)c1ccc(C)cc1,-3.8
19,Cc1ccc(S(=O)(=O)NC(=O)c2ccc(-c3ccc(C)c4ccccc34)o2)cc1,2.82
20,COC(=O)c1ccc(NC(=O)CNc2ccccc2)cc1,-1.52
21,O=C(O)c1ccccc1NC(=O)c1ccccc1-c1ccccc1C(=O)O,18.5
22,O=C(Cn1c(=O)sc2ccccc21)OC(CCl)CCl,0.714
